The other results are listed elsewhere or left out.

We go through 56 sequences from the supplement of paper PMC11417369.

For this experiment, the system named is PfSIP2 AP2 domain 1 (GST-tagged). Nature of the experiment: gcPBM binding intensity (ln(normalized median fluorescence intensity)); higher = stronger DNA binding. A digest of the protocol:
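Plasmodium falciparum DNA-binding domains carrying a GST tag were expressed in E. coli and applied for 1 h, at about 25 μg on average, to an Agilent 4 × 180k array. The array held primer-extended double-stranded 36-bp intergenic genomic probes together with negative controls, and binding took place in 1× PBS with 1% milk, 0.2 mg/ml BSA, 0.5% salmon testes DNA and 0.03% Triton X-100. An Alexa488 anti-GST antibody detected bound protein, and the array was scanned at 488 nm. Binding intensity is taken as the highest Masliner-normalised natural-log median intensity across replicate spots of either probe orientation.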
Regarding “TTTCTAAATAATTATAATGAATCTGCAAACAAGCAT [XGTACX_negctrl_site391]”, the “gcPBM binding intensity (ln)” value was 6.8.
Then “AATAAATAAATAAATAAATATATATATATATATATA [GTGCAC_negctrl_site224]”, with 9.48; and “TTATATTAAAAAAGATGTACGTTTAGGAAAAATATA [XGTACX_site7456]”, with 7; and “TGTATATATATCTCAGTGCATTGCAAATTAAAAATT [GTGCAC_site9646]”, with 8.16.
The value for “ATACTCACGTGACACACACACAATATAAATAAATAT [CACACA_site7862]” was 7.27.
“GGCTTTTTTTAATATGCACACATATATTTTATATAT [CACACA_site8647]”: the “gcPBM binding intensity (ln)” value was determined as 7.54.
As to “TATAATAATCTAATCTGTAGTTTTTTTTTTTTTTTT [CACACA_negctrl_site1206]”, the “gcPBM binding intensity (ln)” value worked out at 7.31.
Then “AAAAAAAAACAGAAAACACACAAATTATCTTATAAT [CACACA_site4326]”, with 6.75.
Consider “AGCACACAAAAAAAAAAAAAAAAAAAAAAAGGAATG [GTGCAC_negctrl_site73]”, for which the “gcPBM binding intensity (ln)” value was 6.94.
The value for “TATGTATTCATATGTTGTACATTATATATAATAAGT [XGTACX_site6589]” was 7.36.
Then “AAATCAGAACCTATTTGTACATATACAAAAATGATT [XGTACX_site2421]”, with 6.68; and “TTTTAATTAGCTAGACGTACAATAATATACAAATAT [XGTACX_site6068]”, with 7.51.
Then “CATATGTAGGGAACAATATAATATGCTTTGAATATG [GTGCAC_negctrl_site524]”, with 6.87; and “ATTTTTTTAAGATAAGAAAAATAAAGTGTGGATATT [XGTACX_negctrl_site476]”, with 7.22; and “TTCCTTATTATTATTTTACACACGTCCTAATAAGAG [CACACA_site8364]”, with 7.09.
Regarding “GCTTGTACATTTTTAAAAAATGACTTCGAAAGGAAT [CACACA_negctrl_site453]”, the “gcPBM binding intensity (ln)” value was found to be 7.39.
The value for “TTTATGCATAGAGAAACATGCAAGAAAGATGCAAAA [TGCATGCA_site726]” was 7.32; that for “ATTATGTATACATAAACACACATATTTATAAAAAAA [CACACA_site6261]” was 7.15.
The value for “ATATATTTATATATATGTACATATTATGTTAAGAAA [XGTACX_site1111]” was 7.04; that for “TTAATATGAAATAAATGTACATAATACATAATAAAA [XGTACX_site6194]” was 6.87.
The value for “GTTTTTAGTATTTTTTGTACTTAATACATAGCCTTA [XGTACX_site7318]” was 6.85; that for “AATTGAAAAATATATAAGAAGAAATATATATATGTT [GTGCAC_negctrl_site97]” was 6.95.
Consider “AACACGCGCGGACACACACACACACCCACATATATA [CACACA_site5252]”, for which the “gcPBM binding intensity (ln)” value turned out to be 7.16.
Then “ATTTATATCTCCATATGTTCAAAACTTTCACAAATA [TGCATGCA_negctrl_site108]”, with 7.18.
Then “AATATAAATTAATTTACACACTAAAAAATATATATA [CACACA_site3778]”, with 7.
The value for “AAAATAAGTAATTACTAATATATAAATTAATAATTA [CACACA_negctrl_site1602]” was 6.67.
Regarding “AAATAGAAGAAATATGCACACATACATTGAAATGTT [CACACA_site7996]”, the “gcPBM binding intensity (ln)” value amounted to 7.47.
On to TTTTCTTCATAAATGCTGCACTGGTTTAAGCATGAT, for which the “gcPBM binding intensity (ln)” value came to 7.85.
The value for “TTTATTAATAAACACACACACACACCCAAAATAAAA [CACACA_site7966]” was 7.35.
Turning to “AAAGAAAAAAAAATTACACACATATATTATATATAT [CACACA_site3211]”, the “gcPBM binding intensity (ln)” value came to 7.71.
Then “CCTTAATATTTTTGAAGTACATATTTATTTTACAAG [XGTACX_site3049]”, with 7.37.
Then “TCAGATATATAGAATACACACATGGATATAAGAAAT [CACACA_site7831]”, with 7.08.
The value for “TTTTTGTAATATTATGATGTCATATATATATATATA [XGTACX_negctrl_site618]” was 9.06; that for “ATATTTTGTAACTATACACACATATATATATTATAA [CACACA_site3062]” was 7.05.
Take “AAATTGGGTACAAATACACACACATATATATATTAA [CACACA_site8745]”: the “gcPBM binding intensity (ln)” value turned out to be 7.24.
For ATAGATCCTAATGTTGTGCACATGTAAATTAATATA, the “gcPBM binding intensity (ln)” value was found to be 9.81.
Take “TTTATACAATAAAATGCATGCAAGTATCTATTTTAT [TGCATGCA_site210]”: the “gcPBM binding intensity (ln)” value came out at 6.77.
Then “TATAATGAACATATGTGTACATATATTTTTTAAATT [XGTACX_site8736]”, with 6.98; and “AAAAAACAAAAAAAAAAAAAAATAATACAATATAAT [CACACA_negctrl_site1630]”, with 6.78; and “ACCATATAAATAAACACACACACACCGATATATATA [CACACA_site5310]”, with 7.37.
Then “GCACAACATATATTATCACACACATATATATATATA [CACACA_site8619]”, with 9.71.
Then “CAAAAGAATATATGTAGTACATGTTGTAGATAATAT [XGTACX_site1044]”, with 7.22; and “CGCGAAGTAGCATTCACACACAGCAAAATATAAATA [CACACA_site7608]”, with 6.75.
In the case of “ATATATATATATAGTGCACACTTAAGAATATAAAGA [CACACA_site4771]”, the “gcPBM binding intensity (ln)” value came out at 10.2.
For the sequence “TGTTATATAATTTAGCGTACAGGTTATAGGACGGAT [XGTACX_site8823]”, the “gcPBM binding intensity (ln)” value came out at 7.55.
As to “AACTATTACTTTCTTTCACACATTTTTTTTTTTTTT [CACACA_site5355]”, the “gcPBM binding intensity (ln)” value was 6.98.
The value for “AACTCTTAGAATGACGGTACAGTATAATAGGTGAAC [XGTACX_site7163]” was 6.97; that for “ATATAATGAATTATTAGAAAATAAAATGAATAAAGT [CACACA_negctrl_site690]” was 7.4.
The value for “ATCATATAAACATATTGTACTTAAATACATAATATT [XGTACX_site3800]” was 7; that for “GGATACGCTTTTGTACCACTCCCCCTTTTGGGAATA [CACACA_negctrl_site1363]” was 7.24; that for “TTTATTTATTTATGTGGTACTTCAAAAATATATACT [XGTACX_site355]” was 7.06.
The value for “CAAACCCACGGACACACACACACAAAAATGATTAAA [CACACA_site5365]” was 7.14; that for “TAAGAAAAAAGTAAATGTACAGAGAAAATTATCTAT [XGTACX_site7374]” was 6.77; that for ATTTATTACAAATGAATGCACTATATCTTAATTTTG was 8.22.
On to “ATATATTTCCTGAGGAGTACTATGAAAGACAAAAAA [XGTACX_site5628]”, for which the “gcPBM binding intensity (ln)” value amounted to 7.48.
The value for “ATAATTTTGATTATCACACATATATATATATATATG [CACACA_site5882]” was 7.46.
